# Article PMC4336329 (PLoS ONE, 2015)
# Out of some 310,000 compounds screened, about 2,200 (0.71%) showed an effect of 50% or more. Effects have a minus sign here. This is one part of the list.
# Biological target: human ether-à-go-go-related gene (hERG) potassium channel (human, UniProt Q12809)
# Assay: primary screen, population patch clamp on CHO cells stably expressing hERG
# Sequence of human ether-à-go-go-related gene (hERG) potassium channel (Q12809 whole entry, looked up): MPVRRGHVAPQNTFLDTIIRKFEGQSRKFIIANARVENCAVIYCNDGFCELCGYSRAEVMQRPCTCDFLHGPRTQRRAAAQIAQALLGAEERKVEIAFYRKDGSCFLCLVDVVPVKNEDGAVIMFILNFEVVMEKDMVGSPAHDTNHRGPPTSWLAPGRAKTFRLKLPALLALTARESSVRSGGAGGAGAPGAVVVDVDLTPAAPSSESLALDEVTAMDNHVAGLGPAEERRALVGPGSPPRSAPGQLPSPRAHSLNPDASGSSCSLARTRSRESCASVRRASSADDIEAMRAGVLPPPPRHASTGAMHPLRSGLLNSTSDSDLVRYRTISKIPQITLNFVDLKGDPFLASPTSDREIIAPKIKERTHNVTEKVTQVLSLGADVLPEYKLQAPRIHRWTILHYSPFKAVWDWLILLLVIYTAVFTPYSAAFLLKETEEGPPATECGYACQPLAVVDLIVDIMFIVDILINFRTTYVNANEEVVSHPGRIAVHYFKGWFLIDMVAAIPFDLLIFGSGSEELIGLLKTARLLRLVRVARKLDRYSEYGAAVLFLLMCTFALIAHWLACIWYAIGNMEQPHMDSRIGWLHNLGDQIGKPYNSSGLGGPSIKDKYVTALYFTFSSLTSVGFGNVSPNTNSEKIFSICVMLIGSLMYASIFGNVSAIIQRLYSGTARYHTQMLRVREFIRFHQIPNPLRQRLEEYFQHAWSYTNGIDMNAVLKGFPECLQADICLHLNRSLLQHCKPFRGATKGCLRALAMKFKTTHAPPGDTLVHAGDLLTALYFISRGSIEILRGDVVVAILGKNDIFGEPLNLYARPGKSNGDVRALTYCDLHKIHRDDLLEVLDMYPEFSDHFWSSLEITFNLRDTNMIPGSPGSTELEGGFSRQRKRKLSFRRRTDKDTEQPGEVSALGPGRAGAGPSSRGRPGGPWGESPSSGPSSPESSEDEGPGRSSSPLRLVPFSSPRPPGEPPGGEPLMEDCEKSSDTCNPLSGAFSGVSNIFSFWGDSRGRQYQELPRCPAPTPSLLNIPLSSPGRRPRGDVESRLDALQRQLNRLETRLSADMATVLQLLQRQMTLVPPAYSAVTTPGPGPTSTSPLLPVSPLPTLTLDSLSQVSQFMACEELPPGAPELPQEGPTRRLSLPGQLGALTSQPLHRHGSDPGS
row,Structure (SMILES),"hERG current change (%, negative = inhibition) at 1uM [%]"
1,CCC(C#CCN1CCOCC1)(CC)OCCC#N,2.58
2,CC(=O)c1c(C)[nH]c(C(=O)Nc2ccc(C)c(C)c2)c1C,18.4
3,CCN(CC)CCn1c(-c2ccccc2)nc(=S)c2c1CC(C)(C)OC2,7.89
4,O=C(c1sc2ccccc2c1Cl)N1CCN(c2ncccn2)CC1,6.43
5,Cc1cccc(Cn2c(=O)oc3ccc(C)cc32)c1,12.2
6,CCCn1c(N)c(CC)c(=O)[nH]c1=O,11.1
7,Cl.O=C1CC(N2CCN(Cc3ccccc3)CC2)C(=O)N1c1ccc2c(c1)OCCO2 (centres unmarked),7.3
8,Cc1noc(NC(=O)c2ccc(Cl)c(Cl)c2)c1Cl,12.9
9,Cc1ccc(-n2[nH]c(C)c(C=Nc3ccc(C)cn3)c2=O)cc1,7.61
10,C[N+]1(CCC(C(N)=O)(c2ccccc2)c2ccccc2)CCCCC1.[Br-],15.7
11,O=C(O)c1cc2cc(Cl)cc(Cl)c2oc1=O,8.8
12,O=c1c(C=NCc2cccnc2)c(C(F)(F)F)[nH]n1-c1nc2ccccc2s1,10.8
13,O=C(c1ccc2c(c1)OCO2)N(Cc1cccs1)C1(C(=O)NC2CCCCC2)CCCCC1,4.07
14,O=C(CSCc1ccccc1F)NCc1ccccc1,13.4
15,CCN(CC(=O)Nc1ccc(NC(C)=O)cc1)C(=O)/C=C/c1ccc2c(c1)OCO2,19.4
16,O=c1[nH]c(CN(CCO)CCO)nc2c1C1(CCCCC1)Cc1ccccc1-2,4.67
17,C=CCn1c(CCc2ccccc2)nnc1SCC(N)=O,6.51
18,COc1cccc(C(=O)OCC(=O)NC(=O)NC2CCCC2)c1O,13.2
19,CCCN1CCC[C@@H](c2cccc(O)c2)C1.Cl,-0.0439
20,CN(C)C1(CNC(=O)Nc2ccccc2)CCCCC1,12.3
21,CCOc1ccc(N2CC(C(=O)Nc3ccncc3)CC2=O)cc1 (centres unmarked),6.08
22,Cc1ccc(C(c2c(C)[nH][nH]c2=O)c2c(C)[nH][nH]c2=O)cc1,15.5
23,CCN(CC(=O)NCc1ccc(Cl)cc1)S(=O)(=O)c1ccc(NC(C)=O)cc1,-7.15
24,O=c1c2cccnc2n(-c2ccccc2)n1Cc1c(Cl)cccc1Cl,4.07
25,Nc1cc(N)cc(C(=O)OCC(=O)Nc2cc(S(=O)(=O)N3CCCCC3)ccc2Cl)c1,13.8
26,COc1cc2c(cc1OC)C1(Nc3c-2c(C)nn3-c2ccccc2)C(=O)Nc2ccccc21 (centres unmarked),4.86
